# According to PubChem BioAssay AID2546 (National Center for Advancing Translational Sciences (NCATS), 2010):
# About 11,000 (3.5%) of roughly 310,000 compounds were called active. This list was built around the results that the source calls inconclusive (neither active nor inactive); the mix of calls is not that of the screen. The call rests on the fitted dose curve; in most records, active means well fitted inhibition curve with a large enough effect; inconclusive means small, poorly fitted or top-dose-only effect, or effect the other way; inactive means flat fitted curve, though single readings scatter. Potencies of inconclusive entries are left out as doubtful fits.
# Assay: VP16 counterscreen qHTS for inhibitors of ROR gamma transcriptional activity;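 further: Gal4-VP16 expression switched on by copper sulfate through the metallothionein promoter; nearly all actives have a fitted effect of over 50% in size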
# Details: Drosophila S2 Gal4-VP16 UAS-luciferase, luminescence, 20 h; activity, negative = inhibition: at 53.6 µM (top of the series)
# On the % scale 0 is the no-effect control and ±100 the full control effect; potency means the concentration at half of the fitted maximal effect; tags describe the fitted curve by direction and shape.
Compound,Potency,"activity, negative = inhibition"
CN(C)c1ccc(NC2=C([N+](=O)[O-])CS(=O)(=O)C2)cc1,"inconclusive [inhibitor, single point]",–
O=C(C(Cl)Cl)N1c2ccccc2OCC1c1ccccc1 (stereo unspecified),"inconclusive [inhibitor, single point]",–
Cc1ccc(C)n1-c1cccc(S(=O)(=O)N2CCOCC2)c1,–,inactive: -1.11% [at 10 µM]
CCN(CC)Cc1c(C(=O)N/N=C/c2cccc(OCc3cccc(Cl)c3)c2)nnn1-c1nonc1N,inactive,–
CCOc1ccc(S(=O)(=O)N(C(=O)c2ccco2)c2cc3sc(=O)oc3c3ccccc23)cc1,"inconclusive [inhibitor, single point]",–
CCCCN(C(=S)SC)C1CCS(=O)(=O)C1 (stereo unspecified),inactive,–
CCOc1cc(/C=N/NC(=O)c2cccnc2)ccc1OC(=O)c1ccco1,inactive,–
CCc1nnc(NC(=O)c2ccc(COc3ccc(C)cc3)o2)s1,inactive,–
COC(=O)c1cnc(SCc2ccc(C)cc2)n1C,"inconclusive [activator, partial curve]",–
CN(C)Cc1c(C(=O)N/N=C/c2ccoc2)nnn1-c1nonc1N,inactive,–
COc1cc(/C=C2\NC(=S)N(C)C2=O)ccc1OCc1cccc(F)c1,"inconclusive [inhibitor, single point]",–
Nc1ccc(/C=C/c2ccc3ncccc3c2)cc1,"inconclusive [inhibitor, single point]",–
COc1cccc(/C=N/NC(=O)C[n+]2ccccc2)c1O,inactive,–
Cn1c(N)c(C(=O)COC(=O)c2cc(C(F)(F)F)nc3ccccc23)c(=O)n(Cc2ccccc2)c1=O,inactive,–
CCc1c(C(=O)N/N=C/c2ccc(C)o2)csc1C,"inconclusive [inhibitor, single point]",–
O=C(c1cc2sccc2n1Cc1ccccc1)N1CCN(c2nc3ccccc3s2)CC1,active: 10 µM,–
O=C(Nc1ccc([N+](=O)[O-])cc1)Nc1nc(-c2ccc(Cl)s2)cs1,active: 0.891 µM,–
Cc1ccc(O)c(/C=N/NC(=O)COc2ccc3c(C)cc(=O)oc3c2)c1,"inconclusive [inhibitor, single point]",–
CC(=N\NC(=O)c1ccccc1)/C(=N/O)C(=O)Nc1ccccc1,"inconclusive [inhibitor, single point]",–
OC(COc1ccc2c(c1)CCC2)Cn1cnc2ccccc21 (stereo unspecified),"inconclusive [inhibitor, single point]",–
CCOC(=O)C(C)Oc1ccc(OCc2ccccc2)cc1 (stereo unspecified),"inconclusive [inhibitor, single point]",–
